# Measured values taken from PubChem BioAssay (NCI).
# The source holds several records for some structures; these can differ, active in one and inactive in another.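 Step 1: grow cells in 96-well plates. Step 2: add test compound at a single concentration. Step 3: incubate 48 h. Step 4: record percent growth.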 A number of entries come with more than one value. Only these are listed. The calls were made as follows: active = growth percent below 10; inactive = the rest. An entry can have further records. These are repeated runs of one drug, at the concentration stated with the values; each value is one run. Additions like (4×) say how often a value occurs here.
# Tested on: SR leukemia
# Assay: NCI-60 one-dose screen, 48 h (100 = growth as untreated, 0 = no growth, -100 = all killed)
# Conditions: 0.25 µM
compound,measurement,setting,value
COc1cccc2c1C(=O)c1c(O)c3c(c(O)c1C2=O)C[C@@](O)(C(=O)CO)C[C@@H]3OC1CC(N)C(O)C(C)O1 (stereo not given in full),growth,runs of 2006,"active: 4.56%, -36.9%"
same,growth,runs of 2007,"active: 4.44, -44.9, -34.7, -23.9, -27.6, -10.6, -8.81, -25.3, -3.62, -12.5, 0.405, -29.7, -1.97, -18, -36.8, 5.61, -16.4, -23.6, -8.62, -18.6, 5.07, -2.4 (2×), 0.966, -1.82, -7.41, -2.37% and inactive: 36.3, 10.7, 41.1, 46.2, 61.7, 11, 45.1, 67, 24.3, 19.5%"
same,growth,runs of 2008,"inactive: 40.4, 17.2, 32.7, 37.7, 70.4, 41.3, 20.9, 69.7, 42, 25.3, 26.2, 46.2, 73.5, 13.3, 46.5, 96.4, 60.5, 66.1, 74.4, 28.7, 17.7, 26.3, 17.4, 32.8, 23.5, 41.8, 22.4% and active: 0.717, -27.4, -18.8, -29.7, -20.1, -33.6, -28.7, -26.7, -5.99, -8.58, -16.5, -31.5, -9.05, -43.7, -45.2, -49.8, -1.25, -1.58, -15.1, -25.8, 3.78, -43, -18.6, -22.3%"
same,growth,runs of 2009,"active: -13.5, -14.7, -12.7, -12.4, -27.3, -23.2, -20.9, -24.6, -52.3, -51.2, 7.35, -8.01, -7.59, 0.673, -8.41, 8.03, -6.55, 1.82, 5, 9.61, 3.52 (2×), 7.52, -0.583, -16.3, 6.88, 8.37, 7.76, -8.79, -6.02% and inactive: 24.2, 26.4, 17.7, 10.6, 18.5, 19.6, 21.9, 14.7, 15.4, 14, 22.3, 30.4, 14.8, 28.4, 17, 17.6, 16.6, 13.2, 20, 18.1%"
same,growth,runs of 2010,"inactive: 19, 19.9, 21.7, 20.7, 18.3, 19.4, 17.4, 18.1, 12.6 (2×), 17.7 (2×), 13.8, 17.1, 16.5, 15.2, 11.7, 12.5, 10.6, 20.8, 13.1% and active: 6.75, 9.69, 4.64, -0.428, 8.99, 3.78, 4.93, 0.935, 6, 8.59, 3.14, 9.38, 3.27, 5.52, 4.54, 2.34, 3.08, 3.64, 5.99, 6.22, 6.36, 9.81, 7.17, 8.79, 3.71, 4.8, -2.72, 1.49, 0.417%"
same,growth,runs of 2011,"active: -8.56, -5.27, 1.73, 5.82, -10.1, 6.34, -17.7, 4.93, 3.41, -3.56, 5.8, 1.97, 6.14, -1.84, 1.77, 9.17, 8.81, 1.81, -5.81, 2.49, 5.25, 5.43, 9.85, 8.84, 4.55, 5.74, 0.344, 6.07, -9.26% and inactive: 22, 10.1, 15.4, 15.9, 12.1 (2×), 39.4, 10, 11.7 (2×), 20.6, 17.7, 18.1, 10.4, 12.9, 13.4, 14, 11.2, 15.8% (2×)"
same,growth,runs of 2012,"active: 4.18, -6.85, 5.15, 5.11, 0.735, 5.34, 4.22, -3.91, -16.8, -4.07, -22.9, -16.3, -28.7, -22.4, -24.6, -6.09, -24.2, -17.2, -21.8, -3.43, -11.2 (2×), 3.32, 0.0855, 8.28, 1.6, 9.12, -1.39, 6.93, 6.15, 4.14, 9.39, 6.66, 5.43, 1.87, -1.94, 7.94, -5.93, -4.95, 9.56, 8.55, 4.67, -44.7, -14.7, 4.84, -48.2, 4.57, -2.98, -20.4% and inactive: 22.6, 18.7, 23.7, 16.6, 11.2, 11.9, 10.8, 11.1, 15.3, 11.7, 22.9, 18.5, 10.9, 16.1, 16.2, 21%"
same,growth,runs of 2013,"active: -0.672, -15.5, -4.83, -0.0567, 9.06, -0.208, 5.89, 4.73, 5.54, -3.48, -0.345, 5.01, -14.1, 2.56, 7.58, 0.957, 1.5, 8.86, 4.28, 0.0501, 0.85, -5.69, 7.51, -13.9, 6.7, -2.25, 5.24, -5.82, 9.77, 8.15, 6.55, 5.88, 7.33, 6.62, 2.61, 2.65, 6.26, 4.48, 2.38, 9.84, 4.51, 1.72, 6.73, 3.67% and inactive: 13.2 (2×), 14.6 (2×), 22.9, 10.7, 27.3, 15.1, 13.3 (2×), 15.6 (2×), 16.5, 12.7, 12, 12.8, 15, 18.8, 19.3, 19.9, 17.4, 18.3, 11.5, 10.6, 10.9, 13.1% (2×)"
same,growth,runs of 2014,"active: 9.64, 2.6, 8.58 (2×), 1.61, 3.28, 5.76, 8.74, 1.86, 8.36, -1.06 (2×), 7.11, 9.18, 5.74, -0.0621, 2.67, 7.29, 3.95, 7.26, 6.85, 8.2, 9.47, 8.28, 9, 3.63, 7.09, 9.85, 7.03, 6.4, -4.45, 1.04, 5.88, 4.11, -10.3, -14.2, 7.1, 6.98, 9.53, 3.13, 2.41, 8.89, -5.45, 5.92, 8.42, 7.25% and inactive: 17.9, 10.9 (2×), 15, 14.5, 14.2, 10.7, 10.4 (2×), 11.5 (2×), 11.6, 11.1 (3×), 12.2, 12.1 (2×), 14.1, 15.4, 14.4, 23.2, 17.8, 13.9, 13.7, 23.8%"
same,growth,runs of 2015,"inactive: 14.8, 15 (3×), 11.5 (2×), 13.8, 13.4, 15.9, 12.9, 17.8, 11.6, 18.2, 19.1, 13.9, 15.4, 16.5, 13.2, 13, 14.6, 16, 14, 15.1, 14.7, 14.5, 16.1, 25.5, 20.3, 13.1, 11.1% and active: 8.27, 5.98, 4.27, 6.21, 9.41, 4.46, 2.25, 1.01, 3.93, 6.75, 2.2, 1.58, 1.02, 1.67, 8.6, 9.64, 9.54, 5.08, 5.59, 5.92, 5.38, 7.22, 3.83, 9.14, 7.27, 9.26, 9.5, 9.89, 5.46, 7.71, 7.65, 6.92, 3.1, 5.75, 0.193, -4.09, 0.509, -1.34, 5.83, 5.82, 0.403, 1.51, 7.7, 2.7, 2.61, 8.04, 0.573, 2.81, 8.07%"
same,growth,runs of 2016,"active: 8.52, 5.33, 2.57, 5.29, 6.57, 2.71, 4.57, -2.23, 7.17, 2.98, 9.07, 7.95, 5.44, 9.57, 8.13, 5.09, 8.49, 8.18 (2×), -3.25, 3.97, 9.55, 8.92, 9.67, 6.99, 9.31, 6.48, 5.73, 8.06, 6.56, 9.62% and inactive: 10.4, 14.5 (2×), 15 (3×), 16.2 (2×), 18.5, 18.8, 14.9, 11.7, 14.7, 18.1, 14.8, 13.3 (2×), 13.5 (3×), 11.6 (2×), 13.2, 13.1, 16.6 (2×), 14.2, 15.3, 10.8, 14.1, 14.6, 12.9, 13.4, 11.1 (2×), 10.6, 12.7, 11 (2×), 17.4, 19, 15.8, 23.9, 24.4, 15.7, 18.7, 17.8, 10.1, 17.2, 15.9%"
same,growth,runs of 2017,"inactive: 10.9, 13.3, 13.5, 15.1, 17.6, 11.2, 15.9, 14.5, 14, 15, 10, 12.1, 14.2, 13.1, 11.6 (2×), 13.7% and active: 9.12, 9.04, 7.36, 6.79, 5.96, 5.04, 3.58, 7.29, 6.26, 6.59, 4.18, 3.84, 7.54, 5.25, -0.758, 9.98, 6.43, 3.66, 7.57 (2×), 6.62, 6.82 (2×), 8.53, 8.89, 5.78, 7.58, 1.76, 8.76, 7.84, 7, 6.54, 9.76, 7.89 (2×), 4.84, 8.29, 7.94, 7.92, 5.58, 5.16, 6, 9.23, 8.46, 6.51, 9.62, 7.93, 4.83, 3.06 (2×), 2.79, 4.51, 2.07, -1.79%"
same,growth,runs of 2018,"inactive: 10.7 (2×), 10.8, 12.3, 13, 12.6, 13.5 (2×), 36.3, 14.5, 28.4, 22.6, 22.7, 13.9 (2×), 12.5, 13.2, 14.7, 25.6, 22.8 (2×), 11, 13.7, 16.5, 17.2, 15.4, 18.3, 16, 20.6, 14.4, 15, 12.8, 15.7, 13.8, 17.6% and active: 8.15, 7.66, 7.27, 4.91, 4.83, 6.24, 7.83, 9.77, 6.94, 4.79, -2.77, -4.8%"
same,growth,runs of 2019,"inactive: 29.1, 25.1, 13, 13.2, 16.2, 14.1, 13.4, 14.9, 23.9, 20.4, 17.1 (2×), 16.9, 15.6, 22.1, 18.3, 17.8, 15.4, 22.6, 19.4, 11.1, 11.5, 23.6, 25.9, 12.1, 13.3, 10.6% and active: 7.72, 7.26, 3.63, 8.38, 9.54, 9.71, 8.99, 8.09, 8.9, 7.97, 6.69, 4.34, 7.13, 4.87, 4.42, 6.83, -2.13%"
same,growth,runs of 2020,"active: 1.26, 2.59, 7.29, 4.84, 7.89, 5.72, 5.5, 4.55, -0.393, 4.71, 9.6, 5.45, 8.81% and inactive: 26.6, 15.9, 12.5, 13.1, 11, 14.6, 13.5, 17.7, 18.7%"
